The list shows a part of the results. At the low end of the ranking, values are background and their order means little.
Target: T1, GST-Rok-C97-191 (UniProt O34857)
T1 sequence: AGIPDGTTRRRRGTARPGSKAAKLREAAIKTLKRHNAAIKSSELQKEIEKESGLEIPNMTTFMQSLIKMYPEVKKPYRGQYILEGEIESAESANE
Test: protein binding microarray;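 further: rank score from −0.5 (least bound) to 0.5 (best bound)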
Details: Rok is a gene silencer of Bacillus subtilis; high values mean tight binding; most listed sequences are background and not binding sites; double strand, one strand shown

Row | Sequence | binding signal
1 | GAAATGTC | 0.165 E-score
2 | CGGATAGA | 0.174 E-score
3 | GCAAAGCC | -0.284 E-score
4 | AGCGTTTC | -0.225 E-score
5 | CGGTAAGC | -0.14 E-score
6 | GTACAGCA | 0.196 E-score
7 | TCTGAACA | -0.166 E-score
8 | ACTAGACT | 0.0777 E-score
9 | ACAGCAAA | 0.0357 E-score
10 | ATAGAAGA | 0.22 E-score
11 | ATAGTTGG | 0.00189 E-score
12 | ACAGCCTG | -0.163 E-score
13 | CATAGTTA | 0.275 E-score
14 | ACAGCTTC | -0.0851 E-score
15 | ACTACATG | 0.307 E-score
16 | ATAGATAG | 0.267 E-score
17 | GCGTTACA | 0.0506 E-score
18 | CGAGGGGC | -0.307 E-score
19 | AGCACCAT | -0.0556 E-score
20 | CTCAAGTC | -0.216 E-score
21 | CTTGGAGA | 0.0338 E-score
22 | CCACAGGC | -0.141 E-score
23 | ACCACTGC | -0.0712 E-score
24 | CGGTTTTA | 0.0315 E-score
25 | CAGAAACC | -0.0393 E-score

Row | Sequence | binding signal
26 | AATCTGGA | -0.12 E-score
27 | TGGAGGAA | -0.00731 E-score
28 | GTAACAAC | 0.184 E-score
29 | CCACGTGC | -0.411 E-score
30 | AATTAACT | 0.287 E-score
31 | CCCGGGCA | -0.326 E-score
32 | GATAGACA | 0.058 E-score
33 | ACCCGGGG | -0.207 E-score
34 | CTATTGAG | 0.0169 E-score
35 | AGTAAGTC | 0.247 E-score
36 | AGTGTCAG | -0.0316 E-score
37 | ACATTACA | 0.144 E-score
38 | ATTTCGTC | 0.115 E-score
39 | AGATGTCG | -0.206 E-score
40 | ACAATTCT | 0.0549 E-score
41 | TCAACCGA | -0.0752 E-score
42 | CAGCGGAC | 0.0305 E-score
43 | GAATAGTA | 0.325 E-score
44 | CCACGTAC | -0.00117 E-score
45 | GACGATGC | -0.0427 E-score
46 | AATTTTGA | 0.199 E-score
47 | CGAGATAA | 0.06 E-score
48 | AAGTGTAA | 0.129 E-score
49 | ATACTTTG | 0.151 E-score
50 | ATAAATAC | 0.287 E-score

Row | Sequence | binding signal
51 | ATACCTCA | 0.138 E-score
52 | ACACCACA | 0.171 E-score
53 | GGAGTCTA | 0.0216 E-score
54 | CTCGCGAC | -0.158 E-score
55 | ACTTAATC | -0.000641 E-score
56 | GGCCAATA | -0.0148 E-score
57 | CACAAGTG | -0.00102 E-score
58 | TAGCCACA | -0.0832 E-score
59 | CGTGACCA | -0.101 E-score
60 | GGGCCACA | -0.243 E-score
61 | GACGTGGC | -0.0403 E-score
62 | ACGATCCA | -0.0275 E-score
63 | AACCAAGG | -0.202 E-score
64 | CGGGAACA | -0.297 E-score
65 | CTGAGCTA | 0.0769 E-score
66 | CACTACAC | 0.0572 E-score
67 | CCAAGAAG | -0.168 E-score
68 | CGCTCGGC | -0.407 E-score
69 | TCGCAAAA | 0.0879 E-score
70 | ATCGTTCA | -0.0994 E-score
71 | CACTTACG | -0.0754 E-score
72 | ACGTCGCA | -0.108 E-score
73 | ACCCTTAT | 0.126 E-score
74 | CAATTAGA | 0.145 E-score
75 | GCTTGTGA | -0.0166 E-score

Row | Sequence | binding signal
76 | CGCTGTAC | -0.0897 E-score
77 | ACTAATGG | 0.148 E-score
78 | GCGATCTA | 0.258 E-score
79 | TCCAAGAA | 0.0241 E-score
80 | AATTCATA | 0.193 E-score
81 | CGCTTGTC | -0.216 E-score
82 | GTTTCATA | 0.141 E-score
83 | AGTATGGG | 0.121 E-score
84 | ATCGGTTG | -0.0335 E-score
85 | CGATGGCA | -0.04 E-score
86 | CGAATACG | 0.0158 E-score
87 | CGCGGACC | -0.173 E-score
88 | GTTGACTA | 0.21 E-score
89 | GCATTTAA | 0.119 E-score
90 | CTCATTCC | -0.0912 E-score
91 | ATCCTGGG | -0.0476 E-score
92 | CTGCTTTA | 0.0209 E-score
93 | CGTCAGTC | -0.134 E-score
94 | CCAGGTAC | -0.0667 E-score
95 | CAATTTCC | 0.0497 E-score
96 | TCTTAGAA | 0.00431 E-score
97 | AAATTAGT | 0.198 E-score
98 | ACTCCACC | -0.101 E-score
99 | GCCTATAA | 0.185 E-score
100 | CAAAACGC | -0.232 E-score

Row | Sequence | binding signal
101 | AACTGCAC | 0.164 E-score
102 | CATTTGCC | -0.118 E-score
103 | ACAAACAC | 0.13 E-score
104 | GTCCATAA | -0.127 E-score
105 | ACTTAGCT | 0.106 E-score
106 | CGATCACA | -0.102 E-score
107 | CACTCATA | -0.000806 E-score
108 | ACCCTATG | 0.0644 E-score
109 | AACGGCAA | 0.102 E-score
110 | ACCTGTCC | -0.25 E-score
111 | AGGCGAAA | -0.22 E-score
112 | TCTTGGAA | -0.157 E-score
113 | CCACATAG | 0.14 E-score
114 | ACTTAGTA | 0.308 E-score
115 | GCTGCCTA | -0.0866 E-score
116 | CATTTCAC | 0.0842 E-score
117 | ATCAATGA | 0.033 E-score
118 | GCCGCGCA | -0.14 E-score
119 | ATCCAACC | -0.154 E-score
120 | GACTAAGC | -0.145 E-score
121 | AGTGATCC | -0.161 E-score
122 | CGAGTCTA | -0.0403 E-score
123 | CGATTGCA | 0.0871 E-score
124 | TCAGACGA | -0.198 E-score
125 | AGAAACGA | 0.0449 E-score

Row | Sequence | binding signal
126 | ACGTCCTC | -0.191 E-score
127 | GCACTCAC | -0.0731 E-score
128 | AGTACATC | 0.273 E-score
129 | ATAGGCCA | 0.0178 E-score
130 | GCCACCTA | -0.136 E-score
131 | GCAGAAGA | -0.104 E-score
132 | AGGACTCG | -0.161 E-score
133 | CGATTAGA | -0.0399 E-score
134 | AAGTGTCT | -0.0685 E-score
135 | CGCGAGCC | -0.167 E-score
136 | AAAAAAGT | -0.0319 E-score
137 | CTATCAGC | -0.0263 E-score
138 | GGAGTTGA | -0.137 E-score
139 | AGTGGAAT | -0.0459 E-score
140 | GTAAGGTA | 0.162 E-score
141 | CGGAGGAG | -0.243 E-score
142 | ATCTCCAA | 0.115 E-score
143 | ACGTGCCG | -0.148 E-score
144 | AACAGGTA | 0.0913 E-score
145 | GTCCTCAC | -0.133 E-score
146 | GATGGTGC | -0.106 E-score
147 | CCGAGCCG | -0.368 E-score
148 | AGTGACGA | 0.00289 E-score
149 | ATATTTCC | 0.269 E-score
150 | GGTTCGTA | -0.183 E-score

Row | Sequence | binding signal
151 | GACGTCCC | -0.341 E-score
152 | GGTGAACC | -0.195 E-score
153 | CAGCACAC | -0.111 E-score
154 | CGCGTACG | 0.0594 E-score
155 | AATTACAG | 0.249 E-score
156 | CTTCTGCA | -0.024 E-score
157 | CCCCTTGC | -0.421 E-score
158 | AACGTGAA | 0.019 E-score
159 | CGCCAAAA | -0.192 E-score
160 | CACCCGTC | -0.0736 E-score
161 | AAGTCCTC | -0.103 E-score
162 | AAAGGGTA | 0.143 E-score
163 | AGAATCAA | 0.123 E-score
164 | GTATTTAA | 0.273 E-score
165 | CCAGGAGA | 0.0367 E-score
166 | AAGCGGCT | 0.111 E-score
167 | CCCGTGTA | 0.123 E-score
168 | GACCTGCA | -0.0827 E-score
169 | ATCACCCG | 0.000296 E-score
170 | ACTGTAAG | 0.000879 E-score
171 | CCCGCATC | -0.234 E-score
172 | ACACATTA | 0.188 E-score

Source: article PMC6212790
